{"source": "paper PMC6919601", "about": "“Identification of Plasmodium dipeptidyl aminopeptidase allosteric inhibitors by high throughput screening” (PLoS ONE, 2019)", "note": "Where “and” joins values, the source holds several entries; their conditions need not be identical. Identical values can stand only once. In all, about 110,000 compounds went through this assay and about 230 (0.21%) showed an effect of 50% or more. The list shows a part of the results.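 Note: 30 min substrate incubation versus DMSO and 10 µM JCP410 controls.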", "data": [{"target": "DPAP1 (Plasmodium falciparum, UniProt Q8IIJ9)", "sequence (Q8IIJ9 whole entry, looked up)": "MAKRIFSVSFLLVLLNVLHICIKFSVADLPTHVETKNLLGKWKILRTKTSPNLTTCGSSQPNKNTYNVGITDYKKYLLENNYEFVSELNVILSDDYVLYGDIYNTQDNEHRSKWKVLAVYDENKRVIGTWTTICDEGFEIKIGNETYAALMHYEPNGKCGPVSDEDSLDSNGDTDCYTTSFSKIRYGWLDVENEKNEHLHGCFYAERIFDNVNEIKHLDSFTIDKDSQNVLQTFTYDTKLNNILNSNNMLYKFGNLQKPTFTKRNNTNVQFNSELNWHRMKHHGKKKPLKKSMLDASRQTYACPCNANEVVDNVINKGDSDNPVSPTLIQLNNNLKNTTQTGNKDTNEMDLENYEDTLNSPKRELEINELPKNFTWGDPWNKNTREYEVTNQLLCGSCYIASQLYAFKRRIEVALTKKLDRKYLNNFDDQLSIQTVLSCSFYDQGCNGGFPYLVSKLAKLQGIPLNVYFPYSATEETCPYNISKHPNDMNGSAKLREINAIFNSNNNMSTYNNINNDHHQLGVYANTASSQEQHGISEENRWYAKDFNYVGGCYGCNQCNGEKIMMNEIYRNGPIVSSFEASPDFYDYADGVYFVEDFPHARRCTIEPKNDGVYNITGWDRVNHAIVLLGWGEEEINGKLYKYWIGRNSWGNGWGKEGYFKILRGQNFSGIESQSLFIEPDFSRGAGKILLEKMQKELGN", "experiment": "primary screen, percent inhibition; read by cleavage of a fluorogenic dipeptide substrate; higher = more effect of the substance", "set-up": "species or system P. falciparum D10 trophozoite lysates; single well", "values": [{"smiles": "CC(C)OCCCNC(=O)c1ccc2c(Cl)c3c(nc2c1)CCCC3", "% Inhibition @ 10 uM": "3.33%"}, {"smiles": "CCC(=O)N1c2ccccc2N=C2CC(C)(C)CC(O)=C2C1c1ccc(C#N)cc1", "note": "(stereo not shown)", "% Inhibition @ 10 uM": "5.24%"}, {"smiles": "COc1cc(C2C(C(C)=O)=C(O)C(=O)N2CCc2c[nH]c3ccccc23)ccc1O", "note": "(stereo not shown)", "% Inhibition @ 10 uM": "-5.95%"}, {"smiles": "Cc1cc(/C=C2/NC(=O)N(Cc3ccc(F)cc3)C2=O)c(C)n1C(C)C", "% Inhibition @ 10 uM": "3.5%"}, {"smiles": "CN1CCN(Cc2c(NC(=O)c3ccc(F)cc3)sc3c2CCC3)CC1", "% Inhibition @ 10 uM": "0.709%"}, {"smiles": "Cc1ccc(-c2onc(C)c2C)cc1S(=O)(=O)N(C)C1CCCCC1", "% Inhibition @ 10 uM": "12%"}, {"smiles": "Cc1ccc(S(=O)(=O)Cc2ccc(C(=O)NCCCN3CCN(C)CC3)o2)cc1", "% Inhibition @ 10 uM": "0.458%"}, {"smiles": "COc1ccc(-c2sc(C(=O)Nc3ccccc3)cc2CC(=O)O)cc1", "% Inhibition @ 10 uM": "-2.72%"}, {"smiles": "CC(CNc1ccc(Oc2ccccc2)cc1)C(=O)O", "note": "(stereo not shown)", "% Inhibition @ 10 uM": "-10.9%"}, {"smiles": "Cc1nnc2c(NCC3CCCO3)nc3ccc(C(=O)c4ccccc4)cc3n12", "note": "(stereo not shown)", "% Inhibition @ 10 uM": "0.454%"}, {"smiles": "O=C(Nc1ccc(NC(=O)c2ccc(Br)o2)cc1)c1ccco1", "% Inhibition @ 10 uM": "-0.303%"}, {"smiles": "CCN1CCCC1CNC(=O)c1cc2c(=O)oc3ccc(C)cc3c2s1", "note": "(stereo not shown)", "% Inhibition @ 10 uM": "2.78%"}, {"smiles": "CC(C)(C)CC(C)(C)NCC(O)COCc1ccccc1", "note": "(stereo not shown)", "% Inhibition @ 10 uM": "-4.06%"}, {"smiles": "CC(=O)N[C@H]1[C@@H](OCc2ccccc2)O[C@H](CO)[C@@H](O)[C@@H]1OC(=O)c1ccccc1", "% Inhibition @ 10 uM": "-6.44%"}, {"smiles": "Cc1ccc(C)c(CN2CCCN(C(=O)c3nn(C)c4c3COc3ccccc3-4)C2)c1", "% Inhibition @ 10 uM": "-1.72%"}, {"smiles": "CC(C)(C)NS(=O)(=O)c1csc(C(N)=O)c1", "% Inhibition @ 10 uM": "5.34%"}, {"smiles": "Cc1ccccc1C(=O)Nc1cccc(NC(=O)c2ccccc2C)c1", "% Inhibition @ 10 uM": "5.92% and 3.72%"}, {"smiles": "COc1cc(C2C(C#N)=C(N)Oc3[nH]nc(-c4cccs4)c32)cc(Br)c1O", "note": "(stereo not shown)", "% Inhibition @ 10 uM": "-4.6%"}, {"smiles": "CCc1c(C)sc(NC(=O)c2cccc(OC)c2OC)c1C#N", "% Inhibition @ 10 uM": "-2.68%"}, {"smiles": "O=C(O)Cn1ncc2c1-c1ccoc1CC2", "% Inhibition @ 10 uM": "-1.7%"}, {"smiles": "Cc1ccc(-c2nc3cnn(-c4ccccc4)c(O)c-3n2)cc1", "% Inhibition @ 10 uM": "2%"}, {"smiles": "CC1CCCN(c2cc(N3CCCC(C)C3)c3nonc3c2[N+](=O)[O-])C1", "note": "(stereo not shown)", "% Inhibition @ 10 uM": "2.65%"}, {"smiles": "COc1ccc(C(=O)Nc2cc(Cl)ccc2C)cc1OC", "% Inhibition @ 10 uM": "0.0035%"}, {"smiles": "O=C(NCCc1ccccc1)c1cccc(Br)c1", "% Inhibition @ 10 uM": "-1.77%"}, {"smiles": "O=C(Cn1ncc2c3ccccc3nc-2c1O)N1CCC2(CC1)OCCO2", "% Inhibition @ 10 uM": "-2.96%"}, {"smiles": "C=CCOc1ccc(CNc2nc[nH]n2)cc1OC", "% Inhibition @ 10 uM": "-1.38%"}, {"smiles": "COc1cc(OC)c(OC)cc1CN1CCN(Cc2ccccn2)CC1", "% Inhibition @ 10 uM": "-1.11%"}, {"smiles": "COc1cccc(C(=O)C2=C(O)C(=O)N(CCc3ccc(OC)c(OC)c3)C2c2cccnc2)c1", "note": "(stereo not shown)", "% Inhibition @ 10 uM": "-3.04%"}, {"smiles": "Cc1cccc(NC(=O)CN2C(=O)N/C(=C/c3cc(C)n(-c4ccccn4)c3C)C2=O)c1", "% Inhibition @ 10 uM": "6.86%"}, {"smiles": "CCOc1cc(C2C(C(C)=O)=C(O)C(=O)N2CCCN(CC)CC)ccc1O", "note": "(stereo not shown)", "% Inhibition @ 10 uM": "3.16%"}, {"smiles": "COc1ccc(C)cc1NC(=O)c1c(C)c(C)c(C)c(C)c1C", "% Inhibition @ 10 uM": "0.162%"}, {"smiles": "O=C(CCNc1c(N2CCCC2)c(=O)c1=O)NC1CCCc2ccccc21", "note": "(stereo not shown)", "% Inhibition @ 10 uM": "-5.37%"}, {"smiles": "Cc1cc(C)cc(-n2nnc(-c3nc(-c4ccccc4C)no3)c2N)c1", "% Inhibition @ 10 uM": "2.19%"}, {"smiles": "O=C(Cc1ccc(Cl)cc1)Nc1ccccc1N1CCN(C(=O)c2ccccc2)CC1", "% Inhibition @ 10 uM": "-6.39%"}, {"smiles": "CCC(=O)N(CCC1(c2ccccc2)CCOC(C)(C)C1)Cc1ccccc1F", "note": "(stereo not shown)", "% Inhibition @ 10 uM": "3.38%"}, {"smiles": "O=C1NC(=O)/C(=C\\c2cccc(Cl)c2Cl)S1", "% Inhibition @ 10 uM": "1.58%"}, {"smiles": "CC1Nc2nc(NC(=O)c3cccnc3)nc(O)c2N(C(=O)c2cccnc2)C1C", "note": "(stereo not shown)", "% Inhibition @ 10 uM": "-1.04%"}, {"smiles": "CCOc1ccccc1C1C(C#N)=C(N)N(c2cccnc2)C2=C1C(=O)CC(C)(C)C2", "note": "(stereo not shown)", "% Inhibition @ 10 uM": "-1.37%"}, {"smiles": "CN1C(=O)c2ccc(N3C(=O)c4ccc(C(=O)O)cc4C3=O)cc2C1=O", "% Inhibition @ 10 uM": "0.266%"}, {"smiles": "CCOc1cccc(=O)c2c(C)n(-c3ccc(OC)cc3)c(C)c12", "% Inhibition @ 10 uM": "-4.32%"}, {"smiles": "COc1ccc(Nc2cc(-c3ccccc3)nc(-c3ccccc3)n2)cc1", "% Inhibition @ 10 uM": "2.65%"}, {"smiles": "COc1ccc(CCN2C(=O)CC(N3CCN(c4ccc(F)cc4)CC3)C2=O)cc1OC", "note": "(stereo not shown)", "% Inhibition @ 10 uM": "0.231%"}, {"smiles": "O=C(NCc1ccccc1Cl)c1ccc2c(c1)ncn2-c1ccc(F)c(F)c1", "% Inhibition @ 10 uM": "2.8%"}, {"smiles": "CCOc1ccc2nc(NC(=O)CCNS(=O)(=O)c3ccc4nc(O)ccc4c3)sc2c1", "% Inhibition @ 10 uM": "1.12%"}, {"smiles": "O=C(COc1ccc(Cl)cc1)N1CCN(c2cccc(Cl)c2)CC1", "% Inhibition @ 10 uM": "-1.98%"}, {"smiles": "Clc1ccc(N2CCN(CC3CC4C=CC3C4)CC2)cc1", "note": "(stereo not shown)", "% Inhibition @ 10 uM": "-3.37%"}, {"smiles": "Cc1ccc(S(=O)(=O)N(C)CC(=O)Nc2cccc(C)n2)cc1", "% Inhibition @ 10 uM": "0.843%"}, {"smiles": "Cc1ccc(S(=O)(=O)Nc2ccccc2C(N2CCN(C)CC2)N2CCN(C)CC2)cc1", "% Inhibition @ 10 uM": "-7.02%"}, {"smiles": "Cc1nc(Cl)c(C(=O)NCc2ccccc2)c(C)c1Cl", "% Inhibition @ 10 uM": "-4.35%"}, {"smiles": "CCCOc1ccc(C(=O)C2=C(O)C(=O)N(Cc3cccnc3)C2c2ccccc2F)cc1C", "note": "(stereo not shown)", "% Inhibition @ 10 uM": "4.74%"}, {"smiles": "CCc1nc2nc(C)cc(N3CCN(C4CCCCC4)CC3)n2n1", "% Inhibition @ 10 uM": "5.9%"}, {"smiles": "COc1ccc(CCNC(=O)c2cc3c(-c4ccccc4F)nn(C)c3s2)cc1OC", "% Inhibition @ 10 uM": "-3.23%"}, {"smiles": "CCOC(=O)c1nnn(-c2nonc2N)c1-c1ccc(OCC)cc1", "% Inhibition @ 10 uM": "1.62%"}, {"smiles": "Cc1ccc2c(=O)c(C(=O)c3ccccc3)cn(CC(=O)NCC3CCCO3)c2n1", "note": "(stereo not shown)", "% Inhibition @ 10 uM": "-5.67%"}, {"smiles": "CN1CCN(c2nc(-c3ccc(S(=O)(=O)NC4(C(=O)NCC#N)CCCCC4)cc3)cs2)CC1", "% Inhibition @ 10 uM": "-3.04%"}, {"smiles": "C=CCn1c(=N)c(C(=O)OC)cc2c(=O)n3ccccc3nc21", "% Inhibition @ 10 uM": "5.17%"}, {"smiles": "CCNc1oc(COc2ccccc2)nc1C#N", "% Inhibition @ 10 uM": "1.43%"}, {"smiles": "Cc1ccccc1C(=O)Nc1ccc(Cl)cc1C(=O)c1ccccc1", "% Inhibition @ 10 uM": "-4.4%"}, {"smiles": "C/C(=N/S(=O)(=O)c1ccc(C)cc1)N1CCN(S(=O)(=O)c2ccc(C)cc2)C1c1ccccc1", "note": "(stereo not shown)", "% Inhibition @ 10 uM": "-3.14%"}, {"smiles": "C/C=C/Cn1c(SCc2ccc(Cl)cc2)nc2c1c(=O)[nH]c(=O)n2C", "% Inhibition @ 10 uM": "-4.65%"}, {"smiles": "COc1ccc(NC(=O)c2cccc(S(=O)(=O)Nc3ccc(C)cc3)c2)cc1", "% Inhibition @ 10 uM": "-0.0217%"}]}]}
